How the values were obtained:
[1] = system: TIL; test: Expression of constitutive and regulated mbIL15 in TIL in response to ACZ (flow cytometry); type: cell-based, human; details: constitutive construct
Description: HEK293T cells were seeded on collagen coated tissue culture plates until 70% confluent. Cells were transfected with pELNS transfer vector carrying constitutive (IL15-292) or regulated (IL15-293) IL15 constructs, as well as packaging plasmids (pRSV.REV, pMDLg/pRRE and OT-BaEVg-002 (SEQ ID NO: 51)) using Lipofectamine 3000 transfection reagent in Opti-MEM media. Media was replaced 6-8 hrs post-transfection with serum-free media. Supernatants containing virus were harvested 24 hr post-transfection, fresh media was added, and supernatants were harvested again at 48 hr post-transfection. Viral supernatants were filtered to remove debris and concentrated by low speed ultracentrifugation. Virus were resuspended, aliquoted and stored at −80 C freezer.
96-well non-coated tissue culture plates were incubated with 35 μg per mL RetroNectin (Takara Bio) in PBS for 2 h at 37° C. or overnight at 4° C. RetroNectin was removed and the plates washed with PBS. […]
mbIL15 expression was determined by flow cytometry using two staining reagents: fluorochrome-conjugated anti-IL15 antibody as well as a recombinant protein comprised of extracellular domain of IL15Ra fused to human IgG1 Fc domain (IL15Ra-Fc). mbIL15+ cell frequency was determined based on co-staining with anti-IL15 and IL15Ra-Fc (identified as the IL15+IL15Ra-Fc+ double positive population).

[2] = system: IL15 expression on T cells; test: IL15 expression on T cells in vivo on day 25 (flow cytometry, IL15Ra-Fc); design: species or system NSG mice; details: constitutive constructs
Description: Human primary T cells capable of expressing constitutive mbIL15 or ACZ-regulated mbIL15 were prepared in accordance with methods described in Example 1 above. After T cell transduction and expansion, CD3/CD28 beads were removed using magnets, cells were washed twice, resuspended in fresh media and counted. T cells were mixed with expanded NK cells and each animal received 5×10^6 T cells and 2×10^6 expanded NK cells. Cells were infused by intravenous injections into NSG mice. Animals infused with T cells expressing regulated constructs were dosed daily with 200 mg/kg ACZ or vehicle by PO injections. Every 3-4 days, 50 μL blood was analyzed by flow cytometry for presence of T cells and NK cells using antibodies against mouse and human CD45, CD3 and CD56. IL15 expression on day 25 was analyzed using IL15Ra-Fc and fluorochrome conjugated anti-human IgG antibody.
IL15 expression on T cells in vivo on day 25 was analyzed by flow cytometry (FIG. 5C). T cells transduced with constitutive constructs IL15-292 and IL15-294 expressed high levels of IL15 (82% and 61%). IL15 expression was <1.5% in vehicle-treated IL15-293 and IL15-295 as well as EV groups. IL15 expression levels were 11% and 9% on T cells transduced with IL15-293 and IL15-295 in groups treated with ACZ.

[3] = system: Human primary T cells; test: In vitro antigen-independent expansion of T cells expressing constitutive or ACZ-regulated mbIL15 (cell numbers by flow cytometry); type: cell-based; details: in 10 days; no exogenous IL15
Description: Human primary T cells capable of expressing constitutive mbIL15 or ACZ-regulated mbIL15 were prepared in accordance with methods described in Example 1 above.
After T cell transduction and expansion, CD3/CD28 beads were removed using magnets, cells were washed twice, resuspended in fresh media and counted. Cells were plated in 12-well plates at 1×10^6 in 2 mL. One well of untransduced cells was cultured in the presence of 2 ng/mL IL15 as a control. T cells expressing regulated constructs were cultured in the absence or presence of acetazolamide (ACZ, 30, 10, 3, 1, 0.3 μM). Cell numbers were monitored by flow cytometry every 3-4 days and cells were cultured for 10-12 days. At each time point 100 μL of cells were collected from wells and analyzed by flow cytometry. Cells were split as needed. Cell cultures were maintained in 12-well plates by taking a portion and adding media in a new plate. Volumes for each well were recorded before and after split to calculate final volume in cell number assessment. IL15 or ACZ were replenished at final concentration of the fresh media added during each split.
T cell numbers were determined by flow cytometry. Empty vector (EV) transduced cell numbers decreased to background levels between 3-5 days in the absence of IL15, and cells expanded 11-fold in the presence of 2 ng/mL exogenous IL15 (FIG. 3A). […]

Row | Molecule | TIL expressing mbIL15 (IL15+IL15Ra-Fc+ double positive) [1] [%] | IL15 expression on T cells in vivo [2] [%] | T cell expansion, constitutive constructs [3]
1 | IL15-292: constitutive membrane-bound IL15 construct (AA SEQ ID NO: 22), no DRD, in pELNS lentiviral vector (protein) MDMRVPAQLLGLLLLWLSGARC[gap - about 120 residues]GSGSGSGSGSGSGSGSGSGSGSGSGSGSGSKQEHFPDNLLPSWAITLISVNGIFVICCLTYCFAPRCRERRRNERLRRESVRPVGS | 45.5 | 82 | 18 -fold
2 | IL15-294: constitutive membrane-bound IL15 construct with modified B7-1 cytoplasmic tail (AA SEQ ID NO: 26) (protein) MDMRVPAQLLGLLLLWLSGARC[gap - about 120 residues]GSGSGSGSGSGSGSGSGSGSGSGSGSGSGSKQEHFPDNLLPSWAITLISVNGIFVICCLTYCFAPRCRERARNERLRRETVRPVGS | – | 61 | 21 -fold

Source: patent US12642792B2, “CA2-IL15 fusion proteins for tunable regulation” (Obsidian Therapeutics, Inc., priority 2019, dated 2026)
